Out of some 48,000 compounds screened, about 450 (0.94%) were called active. Inconclusive results (about 19%) are left out. Calls follow the shape of the dose curve; as a rule, active = well fitted inhibition curve with a large enough effect; inconclusive = small, poorly fitted or top-dose-only effect; inactive = no such curve, though single readings can be large or run the other way. This is one part of the list.
experiment: Primary qHTS for Identification of Small Molecule Inhibitors of Huntingtin Promoter Activity; conditions: HEK293 HTT promoter firefly luciferase reporter (activity 0% = vehicle and -100% = no light), 24 h; series mostly up to 57.5 µM; activity change, negative = inhibition: at the top concentration; also: nearly all actives have a fitted effect of over 50% in size
Procedure, shortened: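 Quantitative HTS used concentration series of up to 57.5 uM final on HEK293 luciferase reporter cells, 24 h at 37 degrees C. Readout was Dual-Glo firefly luminescence.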

Activity change, negative = inhibition, inactive:
CC(C)(C)c1ccc(C(=O)N2CCC(c3nc4ccccc4o3)CC2)cc1 -24%
O=C(CCC1N=C2c3ccccc3N=C(SCc3ccccc3F)N2C1=O)NCc1ccc(F)cc1 (stereo unspecified) -11.4%
COc1ccc(-c2onc(C)c2C)cc1S(=O)(=O)NCC1CCN(Cc2cccc(F)c2)CC1 -34.7%
CC1=C(c2ccc(Cl)cc2)S(=O)(=O)N=C1N1CCC(C(=O)NCc2ccccc2F)CC1 -21%
COc1ccc(CCNc2nc3c(-c4cccc(C)c4)nnn3c3ccccc23)cc1OC -23.9%
COc1ccc(CNC(=O)Cn2c(=O)cc(-c3ccccc3)c3c(C)nn(C)c32)cc1 -28.7%
COc1ccc(S(=O)(=O)N(CC(=O)Nc2cccnc2)c2ccc(Cl)cc2)cc1 -26.2%
CCOc1ccccc1CNC(=O)c1cccn1-c1nnc(N2CCCC2)s1 -44.4%
CCc1ccc2oc(C(=O)Nc3ccccc3C(=O)OC)cc(=O)c2c1 -12.9% [at 11.5 µM]
CC(CCc1ccc(O)cc1)NCCc1ccc(O)c(O)c1 (stereo unspecified)
CCCNS(=O)(=O)Nc1ncnc(OCCOc2ncc(Br)cn2)c1-c1ccc(Br)cc1 15.9%
Cc1ccccc1CSc1cn(CC(=O)N2CCCCCC2)c2ccccc12 -5.75%
Cc1cccn2c(=O)c(C(=O)NCCc3ccc(S(N)(=O)=O)cc3)c(O)nc12 -5.82%
O=C(CCOc1ccccc1)N(Cc1cccnc1)c1nc2c(F)cccc2s1 8.81%
COc1ccc(CNC(=O)COCc2cc(-c3cccs3)on2)cc1 -9.55%
O=C(O)Cn1ccc2cc(S(=O)(=O)N3CCCCCC3)ccc21 -2.48%
Cc1ccccc1CSc1nc2ccsc2c(=O)n1CCC(C)C 5.01%
CC1C(=O)N2CCCc3cc(S(=O)(=O)N4CCC(C(N)=O)CC4)cc1c32 (stereo unspecified) -19%
COc1ccccc1NC(=O)c1oc2ccccc2c1NC(=O)C1CCCCC1 -7.73%
Cc1ccc2cc(CN(C(=O)c3cccc(Cl)c3)c3ccccc3)c(=O)[nH]c2c1 -19.4%
CCCSCCCNC(=O)c1ccc2c(c1)sc1nc(-c3ccc(OCC)cc3)cn12 -9.4%
COc1cccc(CNC(=O)c2cnc(N3CCCCC3)c3ccccc23)c1 -15%
O=C(NCc1ccccc1F)C1CCN(c2nn3cc(-c4ccc(F)cc4)nc3s2)CC1 11.7%
CN1c2ccc(Cl)cc2-c2nc(SCC(=O)NCc3ccccc3)ncc2S1(=O)=O -18.3%
Cc1ccc(Cn2c(C(=O)O)c(CNC3CCCC3)c3ccc(C)cc32)cc1 -14.1%
Cc1cc(C)cc(-n2c(SCC(N)=O)nc3c([nH]c4ccccc43)c2=O)c1 -24.1%
O=C(Nc1ccccc1C(F)(F)F)N1CCC(CN2CCc3ccccc3C2)CC1 -16.1%
O=C(NC1CC(=O)N(c2cccc(F)c2)C1)c1cc2ccccc2o1 (stereo unspecified) 11.2%
COCCNc1oc(/C=C/c2ccc(F)cc2)nc1C#N 61.1%
Cc1ccc2nc(-c3cccc(NC(=O)c4cccc5ccccc45)c3)oc2c1 26.8%
CCC(=O)N1CCc2cc(Br)cc(S(=O)(=O)CCC(=O)NCc3cccc(OC)c3)c21 -14.6%
CCOc1ccc(-n2c(SCC(=O)NC3CCCCC3)nc3c([nH]c4ccccc43)c2=O)cc1 -9.49%
Cc1ccc(-n2c(=O)c3c(cnn3C)n(CC(=O)Nc3ccccc3C)c2=O)cc1 -1.92%
Cc1ccc(CNC(=O)CCCn2c(=O)[nH]c3ccc(Br)cc3c2=O)cc1 8.36%
Cc1cccc(Cn2cc(S(=O)(=O)c3cccc(C)c3)c(=O)c3cc(F)c(N4CCOCC4)cc32)c1 -18.9%
CCCCn1c(=NC(=O)c2cc3ccccc3o2)c(C(=O)OCC)cc2c(=O)n3ccccc3nc21 -9.19%
COc1ccc(Cn2ccnc2SCC(=O)NCc2ccco2)cc1 -16.7%
COc1ccc(-c2onc(C)c2C)cc1S(=O)(=O)NCC1CCN(Cc2cc(C)ccc2C)CC1 -30.8%
CCN(CC)CCNC(=O)Cn1nc(C)c2c(C)n(-c3ccccc3)nc2c1=O -12.1%
CCn1c(=O)c2cc(C(=O)NCCCN3CCC(C)CC3)sc2c2ccccc21 38.3%
COC(=O)c1ccccc1NC(=O)c1ccc2nc(CCc3ccccc3)oc2c1 5.49%
COc1cccc(-c2noc(COc3ccccc3Cl)n2)c1 50.3%
Cc1ccc(Cl)cc1NC(=O)CSc1nc2ccccc2nc1Cc1ccccc1 -2.16%
CCOC(=O)c1cn(CC(=O)Nc2ccc(OC)cc2OC)nn1 -13.6%
CCOc1ccc(CCNC(=O)c2ccc3c(c2)N(Cc2ccc(C)cc2)CCS3)cc1 -29.7%
O=C(C1CCCN(S(=O)(=O)c2ccc(Br)s2)C1)N1CCN(c2ccccc2F)CC1 (stereo unspecified) -23.6%
CCN(CC)CCCNc1sc(S(=O)(=O)c2ccccc2)nc1S(=O)(=O)c1ccc(Cl)cc1 -3.88%
CCOC(=O)c1c(C)[nH]c(CCC(=O)NC(C)c2ccccc2)c1C (stereo unspecified) -10.5%
CCN(C(=O)c1sc2nc3n(c(=O)c2c1C)CCCCC3)c1ccc(OC)cc1 -6.16%
Cc1ccc(Cl)cc1NC(=O)Cn1c(=O)n(CCC(=O)NCc2ccc3c(c2)OCO3)c(=O)c2sccc21 -9.79%
COC(=O)C(NC(=O)CCc1c(C)nc2c(-c3ccccc3)c(C)nn2c1C)C(C)C (stereo unspecified) -19.3%
CCCC(=O)Nc1nnc(S(=O)(=O)N2CCCCCC2)s1 -8.88%
O=C(CCN1CCN(C(=O)OCc2cc(Cl)cc(Cl)c2)CC1)c1ccc2[nH]c(=O)oc2c1 3.26%
COc1ccc(C2C(C(=O)Nc3ccccc3)=C(C)Nc3nc(SCC(=O)c4ccc(C)cc4)nn32)cc1 (stereo unspecified) 2.17%
CC1=C(c2ccc(F)cc2)S(=O)(=O)N=C1N1CCC(C(=O)NCCc2ccccc2C)CC1 -14.7%
Cc1c(C(=O)Nc2ccc(-n3c(C)nc4ccccc4c3=O)cc2)cccc1[N+](=O)[O-] -22.2%
CCOc1cc2c(cc1OCC)C(CC(=O)O)N(C(=O)Nc1ccccc1C(F)(F)F)CC2 (stereo unspecified) -18%
Cc1cc(C)nc(-n2nc(C)c3c2NC(=O)CC3c2cccc(O)c2)n1 (stereo unspecified) -4.13%
Cc1cc2nn(-c3ccc(F)cc3)nc2cc1NC(=O)c1cccc2c(Cl)cccc12 -12%
CCOC(=O)c1ccc2c(c1)N(Cc1ccc(F)cc1Cl)C(=O)c1ccccc1S2(=O)=O -11.1%
CCn1c(C)c(C)c2cc(C(=O)NCc3ccc(F)cc3)ccc21 -6.88%
COc1ccc(-n2cc(-c3ccccc3)c3c(Nc4ccc(OC)c(OC)c4)ncnc32)cc1 -27.4%
Cc1noc(-c2ccc(NC(C)c3ccccc3)c([N+](=O)[O-])c2)n1 (stereo unspecified) -16.7%
CCC(=O)N1CCc2cc(Br)cc(S(=O)(=O)N3CCN(c4ccccc4OC)CC3)c21 0.68%
COc1ccc(-c2oc3c(CC=C(C)C)c(O)cc(O)c3c(=O)c2O)cc1 21.9%
Cc1ccc(CNC(=O)c2ccc(CSCc3cccc(C)c3)o2)cc1 -12.6%
Cc1cc(C)cc(-n2c(SCC(=O)N3CCOCC3)nc3c([nH]c4ccccc43)c2=O)c1 -16.4%
Cc1ccc(CCNS(=O)(=O)c2c(C)nc3sc(C)c(C)n3c2=O)cc1 -1.8%
COc1cccc(-c2nnc(-c3ccccc3NC(=O)c3ccc(F)cc3F)o2)c1 2.17%
CC1CCN(S(=O)(=O)c2ccc3c(c2)N(CC(=O)NCCc2ccccc2)C(=O)CO3)CC1 0.831%
COc1cccc(NC(=O)c2ccc3c(c2)CCN3S(C)(=O)=O)c1 45.3%
Cc1nc2nc(NCc3ccc(Cl)cc3)[nH]n2c(=O)c1Cc1ccccc1 -10.2%
CCCn1c(CCC(=O)Nc2ccc(OCC)cc2)nc2cccnc21 -20.2%
CCN(CC)CCCCNc1ncc2c(n1)N(C)C(=O)N(c1c(Cl)c(OC)cc(OC)c1Cl)C2 -13.7%
CCOC(=O)c1c(C)oc2nc(C)nc(NCc3ccc(F)cc3)c12 6.77%
COc1ccc(C(=O)Nc2nnc(SCc3cc(=O)c4cc(C)cc(C)c4[nH]3)s2)cc1 7.75%
Cc1ccc(CNC(=O)CCCn2c(=O)c3ccccc3n(CC(=O)Nc3ccc(C)c(C)c3)c2=O)cc1 -0.302%
CCOc1ccc(CCNC(=O)CCCn2c(=O)c3cccn3c3ccccc32)cc1 -19.9%
COC(=O)NCC(c1cccnc1)N1CCN(c2ccc(F)cc2)CC1 (stereo unspecified) -15%
Cc1ccc(-n2ncc3c(NCCC4=CCCCC4)ncnc32)cc1 -15.9%
Cc1ccc(Cl)cc1NC(=O)C(C)n1nc(-c2ccccc2)ccc1=O (stereo unspecified) -19.8%
Cn1c(=O)c2c(nc(SCC(=O)Nc3ccccc3F)n2Cc2ccc(Cl)cc2)n(C)c1=O -2.92%
CCc1ccccc1NC(=O)CCNS(=O)(=O)c1ccc2c(c1)CCN2C(=O)C1CC1 0.171%
CC1CCN(CCCC(=O)c2ccc(F)cc2)CC1 -3.71%
COc1ccccc1N1CCN(S(=O)(=O)c2c(C)sc3ncn(CC(=O)N(C)c4ccc(Cl)cc4)c(=O)c23)CC1 -22.3%
CCNC(=O)c1c(NC(=O)Cc2coc3cc(C)cc(C)c23)sc2c1CCCC2 0.671%
Oc1c(C(c2ccccc2F)N2CCN(Cc3ccccc3)CC2)sc2nc(-c3ccco3)nn12 (stereo unspecified) -9.14%
Cc1c(C(=O)N2CCC(c3nc4ccccc4s3)CC2)oc2ccc(Cl)cc12 -17.6% [at 11.5 µM]
Cc1ccc2c(CC(=O)Nc3ccc(S(=O)(=O)N4CCCCC4)cc3)coc2c1 -27.9%
Cc1ccc(Cl)cc1NC(=O)Cn1c(=O)oc2cc(S(=O)(=O)N3CCCC3)ccc21 -50.9%
CCOc1ccccc1N(C)C(=O)C1CCCN(c2ncnc3c2nc2n3CCCCC2)C1 (stereo unspecified) -8.49%
Cc1cc(C)c2c(=O)nc(SCc3ccccc3C)n(C3CC3)c2n1 -3.06%
Nc1ccc(S(N)(=O)=O)cc1
Cc1ccc(NC(=O)c2cc(-c3ccc(Br)s3)nc3ccccc23)cc1F 2.87%
COc1ccc(C(=O)OC2=C(C(=O)c3ccccc3)N(C)S(=O)(=O)c3ccccc32)cc1OC -14.7% [at 11.5 µM]
CCN1CCC[C@H]1CNC(=O)c1cc(S(N)(=O)=O)ccc1OC 14.6%
